Test results reported in the RNAGym collection of RNA variant scans (doi:10.1073/pnas.2313332121).
Variants at the floor of the assay are shown more often than the library holds them.

B1: TPR 5TU (parent)
chain: GGAUCUUCUCGAUCUAACAAAAAAGACAAAUCUGCCACAAAGCUUGAGAGCAUCUUCGGAUGCAGAGGCGGCAGCCUUCGGUGGCGCGAUAGCGCCAACGUUCUCAACUAUGACACGCAAAACGCGUGCUCCGUUGAAUGGAGUUUAUCAUG

Variants of: B1
Experiment: polymerase ribozyme fitness, log enrichment relative to wild type (log ratio); higher = more active; in vitro selection for triplet polymerase activity
How it was run: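 Fitness compares each genotype's enrichment to that of the wild type on a logarithmic scale, averaging replicates with inverse-variance weights. The logarithm is base 2. Enrichment came from Illumina sequencing of input and output libraries after one triplicate round of in vitro selection, which included frozen incubation at −7 °C, of PCR-built, transcribed mutant libraries of each subunit of a heterodimeric triplet polymerase ribozyme. Only genotypes with ≥10 input reads and ≥1 read per output were kept.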

| Variant | polymerase ribozyme fitness (log ratio) |
| --- | --- |
| U53G C93A C103G | ≤ -4.2 |
| C54A C149G | -3.71 |
| U53C C54G A66G C96A C125A A137C U144G | ≤ -4.2 |
| C54G G65A C79U C85G A91U G136C | ≤ -4.2 |
| C54A U61A G74A | ≤ -4.2 |
| C54G G67A U77C C87A C99U U130G | ≤ -4.2 |
| U55A A73G A89G G136A | -0.934 |
| C54G A91G | -4.01 |
| C54G A91U | ≤ -4.2 |
| U55A U101G | -0.568 |
| U55A G84U A106C U144C U146C | -4.16 |
| A52U G83C A106U | ≤ -4.2 |
| C54A G58A G94A A98U | -0.552 |
| C54A G59C G83U C87A C105A C108G | ≤ -4.2 |
| C54U C75G U78C C79A G80U | ≤ -4.2 |
| U55A C87U U90C | ≤ -4.2 |
| C54A U55A C57A | 0.336 |
| U53A C57U A60G C95U U104C A110C | ≤ -4.2 |
| U55A A66G C75A U78G G81A A122U | ≤ -4.2 |
| U53G U55G G86U C108U | ≤ -4.2 |
| U55A U82G | -0.931 |

| Variant | polymerase ribozyme fitness (log ratio) |
| --- | --- |
| U53C A64G U90C G117C | ≤ -4.2 |
| C54G G59A G74A G88U C95A G141C G143U | ≤ -4.2 |
| U55A A147C | -1.3 |
| U55C C85G | -1.66 |
| U55A U56G C63A C87A G88U U148G G152U | ≤ -4.2 |
| C54A C103G A119G A138C | ≤ -4.2 |
| U55A C76G A138C | ≤ -4.2 |
| U55A U56A A89C U109C C132G | ≤ -4.2 |
| U53G U135C | -3.23 |
| U53A G59A G84U U109C U134A | ≤ -4.2 |
| U55A C76U C93U C95U G143A | -2.72 |
| U53A C96U C105G G112C U146C | ≤ -4.2 |
| U53A U55A C72U A89C U109C | ≤ -4.2 |
| U53A G83C C125A G141U | ≤ -4.2 |
| C54U U55G C95A A119C U127G A142C | ≤ -4.2 |
| U55A U56A C57G C72A C114A C149G | ≤ -4.2 |
| U53A G81C C87U C123A | -1.74 |
| C54U C99G U101G A142U | -3.57 |
| U55A A73G C75G C96G C103A C105A U146A | ≤ -4.2 |
| C54G U82G | -0.687 |
| C54U A73G | -0.166 |

| Variant | polymerase ribozyme fitness (log ratio) |
| --- | --- |
| C54G C79U | ≤ -4.2 |
| U53A U109G | -0.777 |
| C54U A89U A91G C118U U134C | ≤ -4.2 |
| A52U G83A U90C A106U U127A | ≤ -4.2 |
| A52U U77G C85A C114G C118G C149G | ≤ -4.2 |
| U55A A107C C125A | ≤ -4.2 |
| U53G U127A U135C | ≤ -4.2 |
| U55A C85A G88C C108A G112C A142U | ≤ -4.2 |
| U53A A137U | ≤ -4.2 |
| U55A U61A A97C C103A C125A | ≤ -4.2 |
| C54U U56C | -0.57 |
| C54A A66G A89U | ≤ -4.2 |
| U53A G59A A60C A107G A121G U146A | ≤ -4.2 |
| U55A A91G U134A | -4.01 |
| U53A U61A U109G | -2.25 |
| U53A C76G U90C U145C | ≤ -4.2 |
| C54A U56C G71C G88U C96G A120U C125A G141A | ≤ -4.2 |
| U55A C114A | -3.44 |
| U55A C114U | -2.21 |
| U55A A73C C87G A98G U109A U111G C131U C132G | ≤ -4.2 |
| C54U G59C A97U | -0.658 |

| Variant | polymerase ribozyme fitness (log ratio) |
| --- | --- |
| C54U U55A G88U G94A U101G U135A A137U | ≤ -4.2 |
| C54A U56G G88C C96U | ≤ -4.2 |
| U53A G58C | -1.52 |
| U53G A89G C93U | ≤ -4.2 |
| U55A U61G G70C C87U A137C U145C | ≤ -4.2 |
| U53A G143A U146C | -2.83 |
| U55A A110U | ≤ -4.2 |
| U53A C76G C79A G92C C108U G143U | ≤ -4.2 |
| U53A A115G | -0.769 |
| C54A U61G | -1.82 |
| U53G C87U A113U C116A G140U | ≤ -4.2 |
| U55C G88A C103A | ≤ -4.2 |
| U55A G62U A73G G86C | ≤ -4.2 |
| U55A U145C | 0.505 |
| U55A U56C G67A G68C C85A C99G U111G G117A | ≤ -4.2 |
| U55A G81A C87U U135A U146A | -2.11 |
| C54U C72G G84U A120C G143U | ≤ -4.2 |
| C54A U55G G92A | ≤ -4.2 |
| U55A A73G | -0.446 |
| C54A C85G U127C U135G | ≤ -4.2 |
